These results are taken from the RNAGym collection of RNA variant scans (doi:10.7554/elife.90254).

B1: LINE1-mini (parent)
chain: GGCAGAGCUCAACACAGCGUGGCAAAGUGGCUGUGGCUAGACUGCC

The source gives no read counts; variants with many changes may rest on few reads.

The series covers variants of B1. The series is described as follows: self-cleavage, relative activity (ratio to wild type); higher = more cleavage; in vitro, sequencing; the parent is a self-cleaving ribozyme.
For the variant G19C C23A G27C, the self-cleavage was determined as 0.48.

For C18G G27U G36U A39U U43G, the self-cleavage is 0.26.

Consider G19A C37A A39U G40C G44A, for which the self-cleavage worked out at 0.06.

Take C18A G19C C23U U32A G35C: the self-cleavage turned out to be 0.1.

As to G19A G36A U43C, the self-cleavage was determined as 0.14.

In the case of C18A G30C G35C A39G A41G, the self-cleavage came out at 0.

Consider C18U C23U C42A, for which the self-cleavage came out at 0.06.

As to C18G G19U A25G G40U, the self-cleavage was found to be 0.01.

In the case of C18A A26G G40U, the self-cleavage turned out to be 0.06.

Take G19A U43A C46A: the self-cleavage worked out at 0.45.

With C18G G21A U34A, the self-cleavage was 0.01.

Consider G17U U20C A25C U32A, for which the self-cleavage worked out at 0.04.

On to C18G G21C C23U A25G, for which the self-cleavage was 0.08.

For C18U G44A C45G, the self-cleavage turned out to be 0.35.

As to C18U G30A U38G, the self-cleavage was found to be 0.01.

For C18U G27C U32C, the self-cleavage turned out to be 0.02.

For the variant C18G C23G U32C, the self-cleavage stood at 0.01.

With C18A A25G U32C, the self-cleavage stood at 0.07.

As for G19A G27A G29U, the self-cleavage amounted to 1.2.

For C18A G29U G36U, the self-cleavage worked out at 0.03.

G17U G21U C37U: the self-cleavage worked out at 0.06.

C18A C23U A24C U34G U38G: the self-cleavage is 0.04.

As to C18A G29U C45A, the self-cleavage worked out at 0.54.

For the variant C18G G22U U34G C42G, the self-cleavage amounted to 0.02.

In the case of C18U G21U C31U A41G, the self-cleavage came out at 0.03.

As for G19A U20A C23A, the self-cleavage was determined as 1.53.

For the variant C18A A25C U32A, the self-cleavage was 0.05.

For G17U G29A U32G G36U U43C, the self-cleavage came out at 0.09.

Regarding C18G C37G U43A, the self-cleavage came to 0.02.

As for C18U U20A A26C, the self-cleavage stood at 0.47.

As to C18G G29A G40A, the self-cleavage came to 0.12.

C18G U20C A24U C45A C46U: the self-cleavage stood at 0.05.

For C18U G22A G29C U32G C42A, the self-cleavage is 0.12.

Regarding C18G A25U G30C U38C, the self-cleavage worked out at 0.35.

With C18U G22A G27A, the self-cleavage was found to be 1.81.

Consider C18U G35A G36A, for which the self-cleavage turned out to be 0.1.

For C18U G44U C46U, the self-cleavage was found to be 0.02.

For G19A G29C C31U, the self-cleavage was found to be 0.3.

G19C A25C G27U U38A A39G: the self-cleavage is 0.01.

As to C18A C37A C42A, the self-cleavage stood at 0.04.

For G19C A41C C42U, the self-cleavage is 0.17.

For C18G G21C G22A, the self-cleavage was found to be 0.05.

In the case of C18G G21C G22C, the self-cleavage was determined as 0.47.

For the variant G19A G21C G22C A25C, the self-cleavage is 0.08.

On to C18G A25C C42U U43A, for which the self-cleavage is 0.08.

For G17U G33C G40A C45G, the self-cleavage came out at 0.03.

For G17U G29C U32A, the self-cleavage is 0.37.

Turning to G19A A26G C31G C37U G40U C45G, the self-cleavage stood at 0.01.

As to G19A G30A A41C, the self-cleavage is 0.1.

As to G17U C31U C42G, the self-cleavage was 0.05.

As to C18U C23U G27C, the self-cleavage is 0.6.

G19A U20A C23A A41G: the self-cleavage turned out to be 0.11.

Take C18G G27A G35U C37A A41G: the self-cleavage came out at 0.01.

For the variant C18U U34A A39U G40U, the self-cleavage came out at 0.02.

Consider G17U G19C C37G U38A C42G C45U C46U, for which the self-cleavage came out at 0.01.

For the variant G17U U28A U38C, the self-cleavage is 0.03.

Regarding G19C G21U A24C G33U, the self-cleavage amounted to 0.1.

As to C18G G19C G21U A26C G30C C46U, the self-cleavage came out at 0.18.

Take G19A U20A G30A A39G C42A: the self-cleavage amounted to 0.02.

In the case of C18A A39G C42U, the self-cleavage was found to be 0.

Regarding G17U U20A U32A, the self-cleavage worked out at 0.02.

Turning to G17U G27U G29U G36U, the self-cleavage stood at 0.17.

As for C18G C31G G36U, the self-cleavage came to 0.04.

Take C18A G21U C23G A26U U32A C37U: the self-cleavage amounted to 0.09.

As to G19A A24C A39C G40C, the self-cleavage came to 0.04.

For G19C C31U C37U U38C C46A, the self-cleavage worked out at 0.01.

As to G19C A26G G27C, the self-cleavage was found to be 0.18.

Regarding C18A G19C C37A, the self-cleavage turned out to be 0.05.

For the variant G17U U20A C23U A26G C42G, the self-cleavage was 0.02.

On to G17U U20A U32G A41G, for which the self-cleavage turned out to be 0.06.

As for C18U G33U G44C, the self-cleavage was determined as 0.04.

As for C18A G33C U34A, the self-cleavage came to 0.02.

Consider C18U G21A C23U, for which the self-cleavage turned out to be 0.35.

Take G17U C37U A39G: the self-cleavage stood at 0.07.

In the case of C18U U20A A39C G40A, the self-cleavage was determined as 0.07.

Turning to G17U C23U G36U, the self-cleavage is 0.08.

On to C18U U28C U32C, for which the self-cleavage was determined as 0.53.

C18A G22A A24U: the self-cleavage amounted to 0.55.

Turning to C18A A26C A39G, the self-cleavage stood at 0.03.

Take G19A G29C G36A: the self-cleavage turned out to be 0.05.

On to C18G A26G G29U C37A, for which the self-cleavage is 0.51.

Consider G17U U28G U34C A41G, for which the self-cleavage was 0.05.

Consider G17U G35U C42U, for which the self-cleavage was determined as 0.05.

As for C18A U20A U28A C31G, the self-cleavage turned out to be 0.07.

Take C18U C31G G44U: the self-cleavage was determined as 0.02.

On to G17U C31U G33A U38G, for which the self-cleavage turned out to be 0.05.

Regarding C18U U28A A41G, the self-cleavage came to 0.3.

For the variant C18U A26U G36A, the self-cleavage is 0.09.

On to C18A C23U G29U U38C, for which the self-cleavage was found to be 1.02.

Take G19A G36A A39C: the self-cleavage was found to be 0.04.

Regarding G19C A24C G29A, the self-cleavage stood at 0.46.

C18G G36C C46A: the self-cleavage was determined as 0.12.

On to C18U A26U C42U, for which the self-cleavage worked out at 0.09.

In the case of G17U G19C U20C G22A, the self-cleavage turned out to be 0.46.

Take G19A G33U U38G: the self-cleavage was 0.05.

As to G19C C23A G40C, the self-cleavage turned out to be 0.05.

As for C18U G29U U38G G40U, the self-cleavage is 0.

For the variant C18G C31U G36C C42A, the self-cleavage came to 0.01.

C18A G30A U32G C45U: the self-cleavage was found to be 0.01.

Consider C18U A25C U32A C37A, for which the self-cleavage was determined as 0.05.

For the variant C18G G22C G35U, the self-cleavage was found to be 0.04.

Consider G17U G21C A24G G29A, for which the self-cleavage came to 0.26.

For G17U G21C G27C C31U, the self-cleavage was 0.43.

As for G19A G21A U28G G30U, the self-cleavage is 1.08.

With G17U U28C C37U, the self-cleavage amounted to 0.02.

As to G17U C42G U43C, the self-cleavage amounted to 0.03.

With C18A A25U G35A, the self-cleavage was found to be 0.07.

On to G19A G29A C42G C45G, for which the self-cleavage was 0.01.

Take G17U G21U C45A: the self-cleavage came out at 0.06.

For the variant G19C A25U C42G, the self-cleavage came to 0.01.

As for C18A G22A U32A, the self-cleavage was 0.03.

Consider C18A G27A G30U, for which the self-cleavage was found to be 0.41.

In the case of G19A U20A G33C, the self-cleavage worked out at 0.01.

C18U A25G C31G: the self-cleavage stood at 0.02.

For the variant C18U G33U U43G C46A, the self-cleavage is 0.01.

Take C18A G36U U38A: the self-cleavage is 0.06.

C18A G36A C42U U43G: the self-cleavage was determined as 0.11.

As for C18U U20C C23A G40U, the self-cleavage came to 0.08.

As for C18U G19U U32A G35U C42U G44C, the self-cleavage is 0.02.

In the case of C18G U20A U32A G33U U38A, the self-cleavage amounted to 0.01.

On to C18U G22A G36U C37G, for which the self-cleavage was found to be 0.

On to C18U A26G A41G, for which the self-cleavage stood at 0.12.

G17U C23U C37G: the self-cleavage came to 0.06.

With C18G G22U G44A, the self-cleavage turned out to be 0.08.

For the variant C18A A26U G30A, the self-cleavage was 0.99.

C18G C37A C45A C46G: the self-cleavage is 0.02.

C18A G21A G36A: the self-cleavage stood at 0.25.

Turning to C18G U28A C31A, the self-cleavage was 0.09.

Regarding C18U U38C G40U, the self-cleavage amounted to 0.04.

For the variant C18A C23G U34G G44A, the self-cleavage worked out at 0.01.

G17U G22C G33A: the self-cleavage is 0.05.

In the case of G19C A26U A39G, the self-cleavage came out at 0.03.

In the case of G19A G33U G40C, the self-cleavage is 0.24.

G17U G19A C46G: the self-cleavage was determined as 0.1.

For the variant G17U G21U U43A, the self-cleavage was determined as 0.09.

As to G19A G30C C31G C45U, the self-cleavage came to 0.19.

Take G17U G29U A39C: the self-cleavage amounted to 0.03.

G17U U20G G22U G27U G30C A41U C42G: the self-cleavage was found to be 0.04.

In the case of G19A G27A G30A, the self-cleavage worked out at 0.9.

In the case of G17U G27U U43G, the self-cleavage came out at 0.27.

As to C18A G29C G33U G40U C46A, the self-cleavage amounted to 0.01.

Regarding G17U U20C C23G, the self-cleavage was determined as 0.21.

In the case of G17U G29A G35A G44U C46U, the self-cleavage was found to be 0.01.

As for G19A U34A C46A, the self-cleavage was found to be 0.06.

Consider C18U U20G A25U, for which the self-cleavage was determined as 0.61.

Regarding C18A G21C A26U G40A, the self-cleavage was 0.01.

For G19A G22A A24U, the self-cleavage worked out at 1.18.

With C18G G30A U34G G40A, the self-cleavage came to 0.01.

Consider C18U G22A A25U U34A U38C, for which the self-cleavage amounted to 0.04.

On to C18U G27U U34A, for which the self-cleavage was found to be 0.14.

For G19A G36U U38A C42G, the self-cleavage was found to be 0.01.

Regarding G17U U32G C42A, the self-cleavage came to 0.13.

Consider G17U U20A C31U C46U, for which the self-cleavage is 0.05.

As for G19A A25C G40C C42A C46A, the self-cleavage amounted to 0.1.

Regarding C18G G19U G30U, the self-cleavage was determined as 0.51.

As for C18G U20A G22C G27A G40A U43C, the self-cleavage came to 0.05.

Regarding C18G G22U C23U G36U A41U, the self-cleavage came to 0.04.

Take C18U G27A C46A: the self-cleavage was 2.49.

As for C18G G19C A24C A41U C46A, the self-cleavage is 0.01.

Turning to G19C C23U G35U, the self-cleavage amounted to 0.11.

For G17U C23U A39U, the self-cleavage came to 0.

Turning to C18A G21A U28G G35C G44C, the self-cleavage is 0.01.

In the case of G17U G36C G40C C45A, the self-cleavage is 0.

For C18A U28C A39G, the self-cleavage is 0.05.

For the variant C18G G27U G36A A41C, the self-cleavage stood at 0.01.

As for C18A G19C U28G U38G U43G, the self-cleavage worked out at 0.01.

As to C18G A26U G27A G29U, the self-cleavage was found to be 0.05.
